# Results published in PubChem BioAssay AID1240 (Sanford-Burnham Center for Chemical Genomics, 2008).
# Screen size: about 50,000 compounds; about 800 (1.6%) showed an effect of 50% or more. Some of the results follow.
# Molecular target: Bcl-2-like protein 10 (Homo sapiens) (UniProt Q9HD36)
# Assay: TR3 peptide-Bcl-B binding displacers, biochemical primary FP assay, phenotype converters (AID 1240);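 also: 0% = Bcl-B with tracer peptide and DMSO and 100% = tracer peptide lacking Bcl-B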
# Details: GST-Bcl-B / FITC-TR3 peptide fluorescence polarization; stronger effect = higher value; compound at 3.75 mg/L
# UniProt Q9HD36, sequence (Q9HD36 whole entry, looked up): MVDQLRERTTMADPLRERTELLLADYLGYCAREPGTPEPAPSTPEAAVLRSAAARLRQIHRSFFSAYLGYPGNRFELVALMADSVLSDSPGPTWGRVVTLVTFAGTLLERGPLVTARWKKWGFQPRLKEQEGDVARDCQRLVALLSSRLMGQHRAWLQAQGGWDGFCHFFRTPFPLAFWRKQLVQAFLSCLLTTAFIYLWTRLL
row,SMILES,displacement [%]
1,COc1ccc(-c2nnc(NC(=O)c3ccc(Cl)cc3)s2)cc1,-11
2,CCOC(=O)CSc1nc2ccc(N)cc2s1,-2.6
3,CC(NC(=S)Nc1ccccc1)C1COc2ccccc2O1 (configuration not stated),-7.3
4,O=C(NC(=S)Nc1ccc([N+](=O)[O-])cc1O)c1ccc(F)cc1,-0.7
5,CCOC(=O)c1c(NC(=O)CN2CCCCC2)sc2c1CC(C)(C)OC2,-6.1
6,COC(=O)c1cc(NC(=O)c2ccc(I)cc2)cc(C(=O)OC)c1,8.3
7,C/C(=N\NS(=O)(=O)c1ccc(C)c([N+](=O)[O-])c1)c1ccc(N)cc1,-1.5
8,Cc1cc(NC(=O)Nc2cccc(Cl)c2)no1,-7.3
9,Cc1cccc(OCC(=O)NCC(C)C)c1,14.3
10,Nc1nnc(CCc2ccccc2)s1,-7.8
11,CC(C)(C)N1C(=O)c2ccc(C(=O)c3ccc(C(=O)O)cc3)cc2C1=O,2.5
12,CC(C)(CO)NC(=O)CC12CC3CC(CC(C3)C1)C2,-14.1
13,Cc1ccc(CNC(=O)C(=O)NCC(C)C)cc1,14
14,O=[N+]([O-])c1cccnc1N1CCOCC1,-13.3
15,COc1ccc(C(CC(=O)c2ccc(O)cc2)S(=O)(=O)c2ccc(C)cc2)cc1 (configuration not stated),11
16,COC(=O)CN(c1ccc(OC)c(Cl)c1)S(=O)(=O)c1ccccc1,3.2
17,O=C1CC(N2CCCCC2)C(=O)N1Cc1ccccc1 (configuration not stated),-9.6
18,COc1ccc(NC(=O)CSc2nc3ccc(N4C(=O)c5ccccc5C4=O)cc3s2)cc1,1.7
19,COc1cccc(C=C2C(=O)NC(=S)NC2=O)c1OCC#N,19.1
20,C/C(=N\NC(=O)COc1ccc(Cl)cc1)c1ccc(Cl)s1,1.3
21,Cc1cccnc1NC(=O)COc1ccc(Cl)cc1Cl,-10.1
22,O=[N+]([O-])c1cccc(S(=O)(=O)Nc2ccccc2Br)c1,-9.9
23,Cc1cccc(OCCOc2ccccc2/C=N/n2cnnc2)c1,-4.5
24,CC1=C(C(=O)OCc2ccccc2)C(c2c(F)cccc2Cl)CC(=O)N1 (configuration not stated),-2.6

row,SMILES,displacement [%]
1,Cc1ccc2[nH]c(C)c(CN3CC(C)OC(C)C3)c(=O)c2c1 (configuration not stated),14.9
2,C=CCNC(=O)c1ccc(OCc2ccccc2)cc1,10.2
3,O=C(COc1ccccc1Cl)Nc1nc(-c2ccccc2)cs1,0.8
4,CCOC(=O)N/N=C/C=C/c1ccccc1,-8.6
5,O=C(NCc1ccco1)C1c2ccccc2Oc2ccccc21,15.4
6,O=C(NC1CCCCCC1)c1ccccc1[N+](=O)[O-],-10.7
7,CC(C1CC1)N(Cc1ccccc1)C(=O)Nc1cccc([N+](=O)[O-])c1 (configuration not stated),12.4
8,CCOC(=O)c1c[nH]c2ccc([N+](=O)[O-])cc2c1=O,-6.8
9,CCOc1ccccc1N1CCN(C(=O)c2ccc([N+](=O)[O-])cc2)CC1,11.1
10,COc1ccc2c(c1)nc(C)n2Cc1ccccc1,-5
11,COc1ccc(-c2cc(C(F)(F)F)n3nc(C(N)=O)cc3n2)cc1,7.8
12,O=C(Nc1ccc(Cl)cc1)Nc1ccc(Br)cc1,-1.6
13,C/C(=N\NC(=O)c1cc(C(C)(C)C)[nH]n1)c1ccc([N+](=O)[O-])cc1,-12.1
14,Cc1ccc(NC2CC(C)N(C(=O)c3cccc(F)c3)c3cc(C)ccc32)cc1 (configuration not stated),-18.7
15,Cc1cccc(N2C(=O)/C(=C/c3ccc(O)c(Cl)c3)C(=O)NC2=S)c1C,14.5
16,O=[N+]([O-])c1cc(Cl)c(-c2ccco2)c(Cl)c1,-5.3
17,CCCNC(=O)c1nn2c(C(F)(F)F)cc(-c3ccccc3)nc2c1Br,-1.5
18,O=C(O)CSc1nnc(-c2ccco2)n1-c1ccccc1,0.4
19,Cc1ccc(C(=O)Nc2ccc(NC(=O)c3ccccc3)cc2)cc1S(=O)(=O)N1CCCCC1,0.2
20,CC1=C(C(=O)OCCc2ccccc2)C(c2cccc([N+](=O)[O-])c2)NC(=O)N1 (configuration not stated),6.9
21,COc1ccccc1C(=O)NNC(=O)CCN1C(=O)/C(=C/c2ccc(C)cc2)SC1=S,-1.2
22,O=C(Nc1ccc(F)c([N+](=O)[O-])c1)C(c1ccccc1)c1ccccc1,14.9
23,Cc1nnc(Nc2ccc(C(=O)N3CCCCC3)cc2)c2ccccc12,3.4
24,O=C(Nc1ccccc1C(=O)NCc1ccccc1)c1ccccc1Cl,5.6

row,SMILES,displacement [%]
1,CCOC(=O)c1ccc2c(c1)C1C=CCC1C(c1ccc([N+](=O)[O-])cc1)N2 (configuration not stated),11.1
2,COc1ccc(S(=O)(=O)N(C)Cc2ccccc2)cc1Br,-3.9
3,COC(=O)C1=C(C(=O)OC)SC(=C2C(=S)C(C)(C)N(C(=O)C(F)(F)F)c3ccc(C)cc32)S1,11.6
4,C/C(=N\N=C(/N)SC1CC(=O)N(c2ccc(Cl)cc2)C1=O)c1ccc(Br)s1 (configuration not stated),-17.6
5,COC(=O)c1cc(-c2cccc(Br)c2)nc2ccccc12,-15.3
6,Cc1ccccc1OCC(=O)N/N=C/c1ccc(O)cc1O,-2.5
7,O=C(CCCOc1ccccc1)Nc1ncn[nH]1,-0.7
8,CCCS(=O)(=O)c1c(S(=O)(=O)CCC)c2cc(-c3ccncc3)ccn2c1C(=O)OC,-1.6
9,CCCCOCC(O)CSCCCC (configuration not stated),2.1
10,O=C(NC(C(=O)N1CCCCC1)=C1CCCCC1)c1ccccc1,-3.1
11,CCOc1ccccc1NC(=O)c1c(NC(=S)Nc2ccccc2)sc2c1CCCCC2,-21
12,O=C1NN(c2ccccc2)C(=O)/C1=C/c1ccc(OCCOc2ccccc2)cc1,15.6
13,CC1=NN(c2nc(-c3ccc(Cl)c(Cl)c3)cs2)C(=O)C1C (configuration not stated),-22.9
14,O=C1C(=O)N(C2CCCC2)C(=O)N1C1CCCCC1,14.4
15,COc1ccc(S(=O)(=O)N(CCc2ccccc2)CC(=O)NC2CCCCC2)cc1,14.2
16,Oc1ccc(-c2cn3c(n2)SCC3)cc1O,28.5
17,Cc1ccccc1C(=O)NN1C(=O)/C(=C\c2ccco2)SC1=S,26
18,COc1ccc(/C=c2\sc3nc(-c4ccccc4)nn3c2=O)cc1,77.5
19,O=C1C2C3C=CC(C4CC34)C2C(=O)N1c1cccc(C(F)(F)F)c1 (configuration not stated),-10.7
20,COc1ccc(-n2c(=O)c3c4c(sc3n3c(SC)nnc23)CCCC4)cc1,-0.7
21,CC1=NN(c2ccccc2)C(=O)C1C=C1C(=O)NC(=O)NC1=O (configuration not stated),-5.2
22,N#Cc1c(NC(=O)CCCN2C(=O)c3ccccc3C2=O)sc2c1CCCC2,9.7
23,CCc1ccc(/C=C2/C(=O)NC(=O)N2C(C)=O)cc1,13.8
24,COc1ccc(/C=C2\SC(=S)N(NC(=O)c3cccnc3)C2=O)cc1,3.4
